Results on 45 sequences are retold here after the supplement of paper PMC11417369.

This is one part of the list.

The test system of this experiment is PfAP2-HC AP2 domain (GST-tagged). As to the kind of experiment: gcPBM binding intensity (ln(normalized median fluorescence intensity)); higher = stronger DNA binding. In short, it runs like this:
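An Agilent 4 × 180k array of primer-extended double-stranded 36-bp intergenic genomic probes, with negative controls, was incubated for 1 h with GST-tagged P. falciparum DNA-binding domains expressed in E. coli. Alexa488 anti-GST antibody detected bound protein, scanned at 488 nm. Binding intensity is the highest Masliner-normalised natural-log median intensity across replicate spots of either probe orientation.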
As for “TAAAAAAGAAAAAGAGCACACAAAAATATTTAACCT [CACACA_site8885]”, the “gcPBM binding intensity (ln)” value is 10.1.

Take “TATATATTTATATATTGTACACTCTTATGTAGTGTA [XGTACX_site210]”: the “gcPBM binding intensity (ln)” value came out at 9.56.

Consider “TTTATCATGAACAGAAGTACATTTATATCAATGTCT [XGTACX_site6470]”, for which the “gcPBM binding intensity (ln)” value was 9.52.

In the case of “ATATATATATAATGTTGTACGTTTTATTCTCCCATT [XGTACX_site8071]”, the “gcPBM binding intensity (ln)” value is 9.72.

As to “ATATATATATATTTTACACACAATGGAGAAAAAAAT [CACACA_site644]”, the “gcPBM binding intensity (ln)” value amounted to 10.

For “TGGTATATACGACACACACACATATGTATAAATATA [CACACA_site6561]”, the “gcPBM binding intensity (ln)” value worked out at 10.9.

As for “TATTTTTAAAAGTTAACAGAAAAAATATAAATAAAT [GTGCAC_negctrl_site295]”, the “gcPBM binding intensity (ln)” value came to 9.42.

Regarding “TTTTCCCTTTTTTCCGCACACAATAAAATAAATAAA [CACACA_site2807]”, the “gcPBM binding intensity (ln)” value amounted to 9.75.

Regarding “TGTAATAAAATAATTAGTACACATATATGTATATTT [XGTACX_site5896]”, the “gcPBM binding intensity (ln)” value was determined as 9.75.

As for “TACCATAATCAATGCACACATAACAAAATATTATTA [CACACA_site2722]”, the “gcPBM binding intensity (ln)” value was 9.78.

For the sequence “TGTTGTTACCTATATACACACATATAAATATTATAG [CACACA_site7180]”, the “gcPBM binding intensity (ln)” value worked out at 9.79.

On to “AAAAAAAAAAAAAAAACACACAAGGATCAGATAGAT [CACACA_site7743]”, for which the “gcPBM binding intensity (ln)” value turned out to be 9.83.

Consider “TTTTTCAGAAAAGAAACACACATATAAATATTTATA [CACACA_site7170]”, for which the “gcPBM binding intensity (ln)” value was 9.51.

Turning to “AGGGCATATATATATGCACACATACATATATACATG [CACACA_site9282]”, the “gcPBM binding intensity (ln)” value stood at 9.94.

As to “AATATTATGATATTATGTACATATTAAAAGCACCAC [XGTACX_site6236]”, the “gcPBM binding intensity (ln)” value came to 10.2.

On to “TTTACACTTTTTTTTGTACACACTAAAAAGATTAAC [CACACA_site3933]”, for which the “gcPBM binding intensity (ln)” value worked out at 9.69.

Turning to “TATTTCACAAACCTTACATGCGGTTTATTTATATAT [TGCATGCA_site123]”, the “gcPBM binding intensity (ln)” value is 9.99.

In the case of “TTTATTAAATATATATGTACATATCAAAATGTATAA [XGTACX_site3181]”, the “gcPBM binding intensity (ln)” value was determined as 9.58.

As to “GTTAAACATCTTCTGTGATATGTTAGAATATTATTT [CACACA_negctrl_site687]”, the “gcPBM binding intensity (ln)” value worked out at 9.57.

On to “TTTTTTTTCTATTGAGCACACATATCACGATTAGTA [CACACA_site7992]”, for which the “gcPBM binding intensity (ln)” value was determined as 9.75.

With “TTTTTGAATGTTTGCACACAAATCTCATAATTTTAG [CACACA_site357]”, the “gcPBM binding intensity (ln)” value was 9.69.

Take “TAGTTACATAAAATATGTACGTATAATTTTTTTATT [XGTACX_site3847]”: the “gcPBM binding intensity (ln)” value was found to be 9.56.

For the sequence “ATAATTTATATCATTACACACATTTTTTATATTTTT [CACACA_site3450]”, the “gcPBM binding intensity (ln)” value came out at 10.

“TATTTTCTCTTAAAAAGTACTCATATATACATTTAT [XGTACX_site7748]”: the “gcPBM binding intensity (ln)” value is 9.64.

For the sequence “TTTAGTTCATACTATGCACACTACGTATATTTTTAA [CACACA_site5484]”, the “gcPBM binding intensity (ln)” value was determined as 9.8.

As to “ATAACATACATAACAACACACAATATTTATAGGTAT [CACACA_site6243]”, the “gcPBM binding intensity (ln)” value was 10.6.

For “CGTTATATATTTTATAGTACTTTTTGTAAATTTTTT [XGTACX_site7682]”, the “gcPBM binding intensity (ln)” value was 9.59.

As to “ATTAATAAGAAGAAAAGTACAAAACAAAAAGATATA [XGTACX_site7473]”, the “gcPBM binding intensity (ln)” value came to 9.72.

With “TAACCAAAAAAAAATATTTAAAATAAATATATATAT [CACACA_negctrl_site1516]”, the “gcPBM binding intensity (ln)” value came to 9.54.

As for “ATTTAACCAAATAATATATTTAAAAAATAGTCACAT [CACACA_negctrl_site274]”, the “gcPBM binding intensity (ln)” value came to 9.58.

Turning to “TTAATTTATGTTAATGGTACGTAAATGCATTTATTT [XGTACX_site3002]”, the “gcPBM binding intensity (ln)” value worked out at 9.69.

“TTTTATAATTTGAGAACATGCAACATAAATATAAAG [TGCATGCA_site965]”: the “gcPBM binding intensity (ln)” value is 9.52.

For the sequence “TATAATATATGAAAAAGTACAAATATTTCGATGGTC [XGTACX_site129]”, the “gcPBM binding intensity (ln)” value came out at 9.76.

Turning to “TGTTCTAATATTTGTTGTACGTTTACGTTTCTCTCT [XGTACX_site18]”, the “gcPBM binding intensity (ln)” value was determined as 9.78.

Regarding “AACATTTTAAAATAATGTACTTGAAAAAAAAACTAC [XGTACX_site8894]”, the “gcPBM binding intensity (ln)” value is 9.51.

As to “CATATAAATAAATATACATGCATACATACATATATA [TGCATGCA_site713]”, the “gcPBM binding intensity (ln)” value stood at 9.68.

As to “TATTTAAGAGTATGAACACACATCATACCCATATAA [CACACA_site5911]”, the “gcPBM binding intensity (ln)” value stood at 9.84.

Take “AAAAATTCAATAGGACGTACTAAAACATTCATTAAT [XGTACX_site1712]”: the “gcPBM binding intensity (ln)” value worked out at 9.6.

“TTTAGTGTTATAAAAAGTACATAATAATTCCTTTTC [XGTACX_site3208]”: the “gcPBM binding intensity (ln)” value is 9.42.

Consider “TTATAAATAATGAGAAACATTAAATTTAATCATAAA [CACACA_negctrl_site523]”, for which the “gcPBM binding intensity (ln)” value was 9.53.

“TACTATATATATATATATATATATATATATATTTAT [GTGCAC_negctrl_site593]”: the “gcPBM binding intensity (ln)” value came out at 9.61.

Consider “TAGTATTAAATATATACACACATATATACCTATAGA [CACACA_site5219]”, for which the “gcPBM binding intensity (ln)” value is 9.78.

For the sequence AAAATGTAATATTGGGTGCACAATAAGTTTGATGTC, the “gcPBM binding intensity (ln)” value was 10.

On to “TGAAAAGATAAAAAAAGTACACACACACATATATAT [XGTACX_site6504]”, for which the “gcPBM binding intensity (ln)” value amounted to 10.6.

On to “AATATGTACAGACATACACACATATTTATATTTATA [CACACA_site6694]”, for which the “gcPBM binding intensity (ln)” value stood at 9.88.
